Measured values taken from the supplement of paper PMC4967469.
IC50 is the fitted dose that halves viability relative to control wells, and lower means more sensitive; where the fit passes the top or lowest dose, that dose stands as a limit. For AUC the same curve is integrated over the 256-fold range of doses and scaled to a fraction; the more sensitive the line, the further below 1. An inferred top dose is not printed in the source and was worked back from the curve model. For part of these data: Drugs with an entry number were screened twice under separate entries, and the two screens often disagree.

What was measured:
Test in all cases: Viability of human cancer cell lines after 72 h of drug (GDSC screen)
[1] = compound: CC(C)=CC[C@@H](O)C1=CC(=O)c2c(O)ccc(O)c2C1=O [Shikonin]; details: top dose 16 µM; top dose inferred
Protocol: (§1)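 Human cancer cell lines in 384-well plates, medium with 10% serum, drug for 72 h over a 256-fold dose range (nine 2-fold or five 4-fold steps up to the top dose). Adherent lines were fixed and stained with the nucleic acid dye Syto60, suspension lines read with resazurin; signal relative to control wells, capped at 0 and 100%. One two-parameter sigmoid per drug and line, fitted in a mixed model over all curves with the slope shared within a line.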

[2] = compound: CNC(=O)c1ccc(Nc2cc(Nc3ccccc3S(=O)(=O)C(C)C)c3cc[nH]c3n2)nc1 [HG-5-113-01]; details: top dose 10 µM; top dose inferred
Protocol: as §1

[3] = compound: Cc1cc(N2CCOCC2)cc2[nH]c(-c3c(NC[C@@H](O)c4cccc(Cl)c4)cc[nH]c3=O)nc12 [BMS-536924]; details: top dose 4 µM; screen: GDSC drug entry 1091; top dose inferred
Protocol: as §1

[4] = compound: Cc1ccc(-n2nc(C(C)(C)C)cc2NC(=O)Nc2ccc(OCCN3CCOCC3)c3ccccc23)cc1 [BIRB 0796]; details: top dose 10 µM; top dose inferred
Protocol: as §1

[5] = compound: Cc1cccc(-c2[nH]c(C(C)(C)C)nc2-c2ccc3nccnc3c2)n1 [SB-525334]; details: top dose 20 µM; top dose inferred
Protocol: as §1

[6] = compound: NC(=O)c1ccc(N(C(N)=O)c2c(F)cccc2F)nc1-c1ccc(F)cc1F [VX-702]; details: top dose 2 µM; top dose inferred
Protocol: as §1

[7] = compound: O=C(c1cc(Cc2n[nH]c(=O)c3ccccc23)ccc1F)N1CCN(C(=O)C2CC2)CC1 [Olaparib]
Protocol: as §1

[8] = compound: O=C1NC(=O)c2c1c(-c1ccccc1Cl)cc1[nH]c3ccc(O)cc3c21 [Wee1 inhibitor 681640]; details: top dose 2 µM; top dose inferred
Protocol: as §1

[9] = top dose 5 µM, screen: GDSC drug entry 1017, top dose inferred
[10] = top dose 10 µM, screen: GDSC drug entry 1495

| Cell Line | AUC [1] | IC50 [1] | AUC [2] | IC50 [2] | AUC [3] | IC50 [3] | AUC [4] | IC50 [4] | AUC [5] | IC50 [5] | AUC [6] | IC50 [6] | AUC [7, 9] | IC50 [7, 9] | AUC [8] | IC50 [8] | AUC [7, 10] | IC50 [7, 10] |
| --- | --- | --- | --- | --- | --- | --- | --- | --- | --- | --- | --- | --- | --- | --- | --- | --- | --- | --- |
| CaR-1 (large intestine, adherent) | 0.524 | 1.2 µM | 0.704 | 3.17 µM | 0.863 | > 4 µM | 0.975 | > 10 µM | 0.975 | > 20 µM | 0.942 | > 2 µM | 0.965 | > 5 µM | 0.903 | > 2 µM | – | – |
| Calu-3 (lung adenocarcinoma, adherent) | 0.52 | 1.15 µM | 0.853 | > 10 µM | 0.938 | > 4 µM | 0.978 | > 10 µM | 0.981 | > 20 µM | 0.961 | > 2 µM | 0.98 | > 5 µM | 0.978 | > 2 µM | 0.955 | > 10 µM |
| Capan-2 (pancreas, adherent) | 0.555 | 1.46 µM | 0.768 | 4.53 µM | 0.822 | 3.02 µM | 0.979 | > 10 µM | 0.884 | > 20 µM | 0.985 | > 2 µM | 0.985 | > 5 µM | 0.982 | > 2 µM | 0.983 | > 10 µM |
| DBTRG-05MG (glioma, adherent) | 0.436 | 0.649 µM | 0.731 | 3.24 µM | 0.877 | > 4 µM | 0.978 | > 10 µM | 0.932 | > 20 µM | 0.974 | > 2 µM | 0.98 | > 5 µM | 0.946 | > 2 µM | 0.959 | > 10 µM |
| DMS-273 (small cell lung carcinoma, adherent) | 0.367 | 0.419 µM | 0.77 | 4.03 µM | 0.957 | > 4 µM | 0.942 | > 10 µM | 0.656 | 3.48 µM | 0.979 | > 2 µM | 0.947 | > 5 µM | 0.972 | > 2 µM | – | – |
| DOK (head and neck, adherent) | 0.663 | 3.59 µM | 0.751 | 4.9 µM | 0.777 | 2.53 µM | 0.951 | > 10 µM | 0.976 | > 20 µM | 0.916 | > 2 µM | 0.89 | > 5 µM | 0.811 | 1.82 µM | 0.941 | > 10 µM |
| EN (endometrium, adherent) | 0.844 | > 16 µM | 0.892 | > 10 µM | 0.958 | > 4 µM | 0.959 | > 10 µM | 0.934 | > 20 µM | 0.984 | > 2 µM | 0.984 | > 5 µM | 0.983 | > 2 µM | 0.96 | > 10 µM |
| ESS-1 (endometrium, adherent) | 0.67 | 2.82 µM | 0.815 | 4.81 µM | 0.969 | > 4 µM | 0.987 | > 10 µM | 0.988 | > 20 µM | 0.99 | > 2 µM | 0.975 | > 5 µM | 0.902 | > 2 µM | 0.937 | > 10 µM |
| EW-7 (Ewing sarcoma, semi-adherent) | 0.512 | 1.07 µM | 0.707 | 2.2 µM | 0.7 | 0.839 µM | 0.99 | > 10 µM | 0.601 | 2.28 µM | 0.949 | > 2 µM | 0.964 | > 5 µM | 0.977 | > 2 µM | 0.824 | 5.02 µM |
| FADU (head and neck, adherent) | 0.513 | 1.08 µM | 0.687 | 2.04 µM | 0.946 | > 4 µM | 0.942 | > 10 µM | 0.976 | > 20 µM | 0.988 | > 2 µM | 0.988 | > 5 µM | 0.928 | > 2 µM | – | – |
| FTC-133 (thyroid, adherent) | 0.637 | 2.48 µM | 0.818 | 6.36 µM | 0.98 | > 4 µM | 0.944 | > 10 µM | 0.934 | > 20 µM | 0.942 | > 2 µM | 0.981 | > 5 µM | 0.887 | > 2 µM | 0.976 | > 10 µM |
| G-401 (kidney, adherent) | 0.36 | 0.393 µM | 0.78 | 4.54 µM | 0.81 | 2.36 µM | 0.911 | > 10 µM | 0.888 | > 20 µM | 0.978 | > 2 µM | 0.932 | > 5 µM | 0.927 | > 2 µM | 0.924 | > 10 µM |
| H513 (mesothelioma, semi-adherent) | 0.899 | > 16 µM | 0.926 | > 10 µM | 0.973 | > 4 µM | 0.986 | > 10 µM | 0.976 | > 20 µM | 0.986 | > 2 µM | 0.986 | > 5 µM | 0.98 | > 2 µM | 0.971 | > 10 µM |
| H2369 (mesothelioma, adherent) | 0.568 | 1.55 µM | 0.829 | 6.53 µM | 0.969 | > 4 µM | 0.857 | 8.59 µM | 0.976 | > 20 µM | 0.987 | > 2 µM | 0.986 | > 5 µM | 0.931 | > 2 µM | 0.932 | > 10 µM |
| H2461 (mesothelioma, adherent) | 0.802 | 10.2 µM | 0.776 | 5.05 µM | 0.934 | > 4 µM | 0.96 | > 10 µM | 0.973 | > 20 µM | 0.983 | > 2 µM | 0.977 | > 5 µM | 0.983 | > 2 µM | 0.88 | > 10 µM |
